Reference: US9598497B2, “RSPO3 binding agents and uses thereof” (OncoMed Pharmaceuticals, Inc., priority 2012, dated 2017)
Positions count from the first letter of the chain named.

B1: 131R003 CDR1 variant: affinity-matured 131R003 variant with altered heavy chain CDR1 (SEQ ID NO:34) (antibody)
heavy: QVQLKQSGPELVKPGASVKISCKASGYTFTSYTFHWVKQNHGKSLDWIGYIYPSNGDSGYNQKFKNRATLTVDTSYSTAYLEVRRLTFEDSAVYYCATYFANYFDYWGQGTTLTVSSASTKGPSVFPLAPCSRSTSESTAALGCLVKDYFPEPVTVSWNSGALTSGVHTFPAVLQSSGLYSLSSVVTVPSSNFGTQTYTCNVDHKPSNTKVDKTVERKCCVECPPCPAPPVAGPSVFLFPPKPKDTLMISRTPEVTCVVVDVSHEDPEVQFNWYVDGVEVHNAKTKPREEQFNSTFRVVSVLTVVHQDWLNGKEYKCKVSNKGLPAPIEKTISKTKGQPREPQVYTLPPSREEMTKNQVSLTCLVKGFYPSDIAVEWESNGQPENNYKTTPPMLDSDGSFFLYSKLTVDKSRWQQGNVFSCSVMHEALHNHYTQKSLSLSPGK
light: DIVLTQSPASLAVSLGQRATISCKASQSVDYDGDSYMNWYQQKPGQPPKLLIYAASNLESGIPARFSGSGSGTDFTLNIHPVEEEDAATYYCQQSNEDPLTFGAGTKLELKRTVAAPSVFIFPPSDEQLKSGTASVVCLLNNFYPREAKVQWKVDNALQSGNSQESVTEQDSKDSTYSLSSTLTLSKADYEKHKVYACEVTHQGLSSPVTKSFNRGEC
B2: 131R003 CDR3 variant: affinity-matured 131R003 variant with altered heavy chain CDR3 (SEQ ID NO:35); heavy chain variable region SEQ ID NO:36 (antibody)
heavy: B1 heavy with S31D, T33S, F34I, Y103N
light: B1 light
B3: h131R008: humanized 131R003 variant, IgG1; heavy chain SEQ ID NO:69, light chain SEQ ID NO:74 (antibody)
heavy: QVQLVQSGAEVKKPGASVKVSCKASGYTFTDYSIHWVRQAPGQGLEWIGYIYPSNGDSGYNQKFKNRVTMTRDTSTSTAYMELSRLRSEDTAVYYCATYFANNFDYWGQGTTLTVSSASTKGPSVFPLAPSSKSTSGGTAALGCLVKDYFPEPVTVSWNSGALTSGVHTFPAVLQSSGLYSLSSVVTVPSSSLGTQTYICNVNHKPSNTKVDKRV[… human IgG1 Fc …]
light: B1 light with S22T, N78T, H80N, E84A, A87V
modifications: Humanized 131R008/131R010 Heavy chain (IgG1); Humanized 131R005/131R007/131R008 Light chain

Assays:
[1] = system: RSPO3-induced β-catenin signaling; experiment: TOPflash 6xTCF-luciferase reporter assay in HEK-293 cells with WNT3a and RSPO3; type: cell-based; conditions: WNT3a + human RSPO3, antibody 20 to 0.006 μg/ml, compared with parental 131R003, FIG. 4
Description: HEK-293 cells were transfected with a 6×TCF-luciferase reporter vector (TOPflash, Millipore, Billerica, Mass.). After 24-48 hrs, the transfected HEK-293 cells were incubated with a combination of WNT3a (5 ng/ml) and human RSPO3 (10 ng/ml, R&D BioSystems, Minneapolis, Minn.) in the presence of anti-RSPO3 antibodies 131R002 and 131R003. Antibodies 131R002 and 131R003 were added to the cells in 4-fold serial dilutions from 20 μg/ml to 0.02 μg/ml. As controls, cells were incubated with a combination of WNT3a and RSPO3, WNT3a only, RSPO3 only, or with no addition. The cells were incubated for 16 hours and luciferase activity was measured using Steady-Glo® Luciferase Assay System according to the manufacturer's instructions (Promega, Madison, Wis.).
(§1) HEK-293 cells were transfected with a 6×TCF-luciferase reporter vector (TOPflash, Millipore, Billerica, Mass.). […] The cells were incubated for 16 hours and luciferase activity was measured using Steady-Glo® Luciferase Assay System according to the manufacturer's instructions (Promega, Madison, Wis.).
as §1, with “Wis.). […]” for “Wis.).”

murine RSPO2 = murine RSPO2 (Mus musculus, UniProt Q8BFU0); experiment: Binding of antibody to murine RSPO2 (additional experiments)
murine RSPO2, sequence (Q8BFU0 24-243): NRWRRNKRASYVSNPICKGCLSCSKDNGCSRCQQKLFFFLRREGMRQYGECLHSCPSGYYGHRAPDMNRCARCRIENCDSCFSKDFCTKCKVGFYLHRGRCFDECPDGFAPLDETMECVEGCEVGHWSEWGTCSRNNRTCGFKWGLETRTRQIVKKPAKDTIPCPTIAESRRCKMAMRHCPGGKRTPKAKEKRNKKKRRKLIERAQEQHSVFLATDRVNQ
Description: (§2) The method used was different than described in Example 3. A goat anti-human IgG antibody was coupled to a carboxymethyl-dextran (CM5) SPR chip using standard amine-based chemistry (NHS/EDC) and blocked with ethanolamine. Antibodies (purified antibody or culture supernatant) were diluted to a concentration of 10 μg/ml in HBS-P-BSA (0.01M HEPES pH7.4, 0.15M NaCl, 0.005% v/v Polysorbate 20, 100 ug/ml BSA) and captured onto the chip via the anti-human IgG antibody. Human RSPO3 (R&D Systems) was serially diluted 2-fold from 300 nM to 37.5 nM in HBS-P-BSA and injected sequentially over the captured anti-RSPO3 antibodies. RSPO3 association and dissociation was measured at each concentration. After each antigen injection 5 μl of 100 mM H3P04 was injected to remove the antigen-antibody complex and a subsequent injection performed. Kinetic data were collected over time and were fit using the simultaneous global fit equation to yield affinity constants (KD values) for each antibody (Table 4).

murine RSPO1 = murine RSPO1 (Mus musculus, UniProt Q9Z132); experiment: Binding of antibody to murine RSPO1 (additional experiments)
murine RSPO1, sequence (Q9Z132 21-265): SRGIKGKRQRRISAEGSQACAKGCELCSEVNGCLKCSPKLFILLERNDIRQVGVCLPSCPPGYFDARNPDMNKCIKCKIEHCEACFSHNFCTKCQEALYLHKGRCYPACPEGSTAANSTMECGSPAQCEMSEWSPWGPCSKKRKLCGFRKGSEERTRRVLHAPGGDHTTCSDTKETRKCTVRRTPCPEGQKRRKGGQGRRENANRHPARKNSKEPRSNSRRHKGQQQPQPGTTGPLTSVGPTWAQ
Description: as §2

human RSPO1 = human RSPO1 (Homo sapiens, UniProt Q2MKA7); experiment: Binding of antibody to human RSPO1 (additional experiments)
human RSPO1, sequence (Q2MKA7 21-263): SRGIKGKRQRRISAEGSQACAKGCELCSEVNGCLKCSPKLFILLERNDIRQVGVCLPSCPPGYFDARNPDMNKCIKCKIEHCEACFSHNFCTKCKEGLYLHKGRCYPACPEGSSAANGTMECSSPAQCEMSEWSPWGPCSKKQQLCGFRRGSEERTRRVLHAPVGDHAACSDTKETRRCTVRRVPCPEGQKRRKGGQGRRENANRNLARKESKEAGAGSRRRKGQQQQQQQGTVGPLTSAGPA
Description: as §2

human RSPO4 = human RSPO4 (Homo sapiens, UniProt Q2I0M5); experiment: Binding of antibody to human RSPO4 (additional experiments)
human RSPO4, sequence (Q2I0M5 20-234): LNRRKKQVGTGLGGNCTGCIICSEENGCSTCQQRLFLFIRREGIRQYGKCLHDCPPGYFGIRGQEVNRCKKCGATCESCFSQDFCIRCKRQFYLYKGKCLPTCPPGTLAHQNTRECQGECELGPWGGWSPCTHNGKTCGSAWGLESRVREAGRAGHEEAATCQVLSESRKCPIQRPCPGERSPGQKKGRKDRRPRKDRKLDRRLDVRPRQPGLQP
Description: as §2

OMP-LU25 lung tumor = OMP-LU25 lung tumor xenograft growth; type: in vivo, NOD/SCID mice; conditions: antibody 20 mg/kg weekly, paclitaxel 15 mg/kg weekly, FIG. 14
Description: In a study with a second lung tumor, dissociated OMP-LU25 lung tumor cells (5×10^4 cells) were injected into 6-8 week old NOD/SCID mice. Tumors were allowed to grow for 48 days until they reached an average volume of 110 mm^3. The mice were randomized (n=9 per group) and treated with anti-RSPO3 antibody 131R002 or a control antibody. […] Data are expressed as mean±S.E.M.
OMP-LU25 tumor cells (5×10^4) were injected into NOD-SCID mice. Tumors were allowed to grow for 33 days until they reached an average volume of 120 mm^3. Tumor-bearing mice were randomized into 4 groups (n=9 per group). Tumor-bearing mice were treated with either control antibody, anti-RSPO3 antibody 131R008, paclitaxel, or the combination of anti-RSPO3 antibody 131R008 and paclitaxel. Antibodies were dosed weekly at 20 mg/kg. Paclitaxel was dosed weekly at 15 mg/kg.

murine RSPO4 = murine RSPO4 (Mus musculus, UniProt Q8BJ73); experiment: Binding of antibody to murine RSPO4 (additional experiments)
murine RSPO4, sequence (Q8BJ73 20-228): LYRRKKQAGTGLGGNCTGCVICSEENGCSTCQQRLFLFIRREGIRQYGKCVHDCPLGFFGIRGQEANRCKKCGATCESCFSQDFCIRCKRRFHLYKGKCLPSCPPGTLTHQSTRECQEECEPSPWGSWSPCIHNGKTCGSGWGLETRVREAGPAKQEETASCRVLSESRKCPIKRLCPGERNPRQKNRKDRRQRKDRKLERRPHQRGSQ
Description: as §2

Molecule | RSPO3-induced β-catenin signaling [1] | binding to murine RSPO2 (murine RSPO2) | binding to murine RSPO1 (murine RSPO1) | binding to human RSPO1 (human RSPO1) | binding to human RSPO4 (human RSPO4) | OMP-LU25 tumor growth (OMP-LU25 lung tumor) | binding to murine RSPO4 (murine RSPO4)
B1 | reduced RSPO3-induced β-catenin signaling in a dose-dependent manner and at lower concentrations than parental 131R003 |  |  |  |  |  | 
B2 | reduced RSPO3-induced β-catenin signaling in a dose-dependent manner and at lower concentrations than parental 131R003 |  |  |  |  |  | 
B3 |  | no detectable binding | no detectable binding | no detectable binding | weak binding | inhibited OMP-LU25 tumor growth as a single agent | weak binding
